From PMC4336329 (PLoS ONE, 2015)
Hit rate of the full screen: of about 310,000 compounds, about 14,000 (4.5%) showed an effect of 50% or more. The effect is printed as a negative number. The list shows a part of the results.

Target: human ether-à-go-go-related gene (hERG) potassium channel (human, UniProt Q12809)
Test: primary screen, population patch clamp on CHO cells stably expressing hERG
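Note: peak tail current of the secondary pulse compared with the same well before compound.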

Sequence of human ether-à-go-go-related gene (hERG) potassium channel (Q12809 whole entry, looked up): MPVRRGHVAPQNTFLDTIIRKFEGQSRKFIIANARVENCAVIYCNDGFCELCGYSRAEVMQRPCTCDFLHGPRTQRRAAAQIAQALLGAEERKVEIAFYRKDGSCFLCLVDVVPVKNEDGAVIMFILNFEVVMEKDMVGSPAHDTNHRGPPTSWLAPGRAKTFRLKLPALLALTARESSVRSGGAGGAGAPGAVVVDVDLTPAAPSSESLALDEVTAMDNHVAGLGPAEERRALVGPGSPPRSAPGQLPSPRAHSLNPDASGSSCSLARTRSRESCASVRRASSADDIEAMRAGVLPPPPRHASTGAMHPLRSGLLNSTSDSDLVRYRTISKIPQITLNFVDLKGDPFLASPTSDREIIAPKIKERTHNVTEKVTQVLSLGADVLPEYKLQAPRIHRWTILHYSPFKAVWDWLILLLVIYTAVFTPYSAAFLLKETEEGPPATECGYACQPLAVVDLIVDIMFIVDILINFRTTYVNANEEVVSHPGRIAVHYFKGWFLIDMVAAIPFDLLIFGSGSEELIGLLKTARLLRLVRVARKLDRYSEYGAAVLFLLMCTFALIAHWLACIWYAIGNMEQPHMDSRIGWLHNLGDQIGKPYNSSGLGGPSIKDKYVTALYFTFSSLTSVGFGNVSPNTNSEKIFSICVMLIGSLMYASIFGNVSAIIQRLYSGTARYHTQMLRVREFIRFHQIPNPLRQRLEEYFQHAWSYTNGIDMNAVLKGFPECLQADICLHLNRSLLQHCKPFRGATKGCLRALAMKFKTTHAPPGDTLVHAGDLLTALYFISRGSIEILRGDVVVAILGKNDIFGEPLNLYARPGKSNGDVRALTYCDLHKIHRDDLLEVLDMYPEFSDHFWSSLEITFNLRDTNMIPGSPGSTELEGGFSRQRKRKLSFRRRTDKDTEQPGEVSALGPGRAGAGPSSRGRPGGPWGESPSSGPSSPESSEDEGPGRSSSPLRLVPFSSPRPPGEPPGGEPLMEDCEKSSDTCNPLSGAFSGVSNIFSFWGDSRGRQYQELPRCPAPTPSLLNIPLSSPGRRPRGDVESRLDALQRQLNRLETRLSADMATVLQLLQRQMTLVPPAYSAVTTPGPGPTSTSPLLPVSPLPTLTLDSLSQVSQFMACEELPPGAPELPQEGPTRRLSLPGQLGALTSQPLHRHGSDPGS

Compound	hERG current change (%, negative = inhibition) at 10uM [%]
O=c1c2ccccc2nc(/C=C/c2cccc(Br)c2)n1CCCO	9.28
COc1ccccc1-c1noc(CCCC(=O)N2CCOCC2)n1	-1.97
CCOc1ccc(C(C)=O)cc1Cc1c(O)nc(N)[nH]c1=O	5.42
Cc1ccc(C(=O)n2cc(CCN3CCS(=O)(=O)CC3)c3ccccc32)cc1	-6.29
Cc1ccc(OCCCCNC(C)(C)C)c([N+](=O)[O-])c1.O=C(O)C(=O)O	-4.42
O=C1C2C3c4ccccc4C(c4ccccc43)[C@@H]2C(=O)N1c1cccnc1 (some centres unmarked)	31.7
COc1ccc(S(=O)(=O)N(C)CC(=O)Nc2ccc(C(N)=O)cc2)cc1OC	25.9
Cc1ccc(C(=O)NC(C)C2CCCO2)o1 (centres unmarked)	6.72
Cn1cnnc1SCC(=O)Nc1cc(S(=O)(=O)N2CCCCCC2)ccc1Cl	-17.8
COc1ccc(NC(C)C(=O)N2CCN(Cc3ccccc3)CC2)cc1 (centres unmarked)	24
Cc1cccn2c(=O)c3cc(C(=O)NC4CCCC4)sc3nc12	-22.8
O=C(NCCCCc1ccccc1)C12CN(Cc3ccccc3)CC1C(c1cccc([N+](=O)[O-])c1)=NO2 (centres unmarked)	-6.27
COC(=O)c1cc(Br)c(=O)n(-c2ccccc2OC)c1	6.23
Cc1ccc(-n2c(=O)c3ccc(C(=O)NCc4ccco4)cc3n(Cc3ccccc3C#N)c2=O)cc1	24.1
COc1ccc(OC)c(/C=C2\SC(=S)N(C(C(=O)O)c3ccccc3)C2=O)c1 (centres unmarked)	6.24
O=C(c1cc(Cl)c(=O)n(Cc2ccc(Cl)cc2)c1)N1CCOCC1	-26.6
C=CCn1c2ccccc2c2nnc(SCC(=O)OCN3C(=O)c4ccccc4C3=O)nc21	0.0991
COC(=O)c1cc2sccc2n1CC(=O)Nc1cccc(SC)c1	16.3
Cc1cccc(NS(=O)(=O)c2cccc(C(=O)N3CCCC3)c2)c1	4.7

Compound	hERG current change (%, negative = inhibition) at 10uM [%]
O=C1c2cc(N3CCCC3)c([N+](=O)[O-])cc2C(=O)N1c1ccccc1	4.3
COc1ccccc1/C=C/C(=O)Nc1cccc(S(=O)(=O)N2CCOCC2)c1	-16.1
COc1ccc(N2CC(C(=O)N3CCCC(C)C3)CC2=O)cc1 (centres unmarked)	-8.61
O=C(Cn1c2ccc(F)cc2c2nc3n(c(=O)c21)CCS3)Nc1ccccc1F	10.3
CCCCCN1N=C(C)CC1=O	3.59
Cc1nn(C(C)C(=O)Nc2sc3c(c2C#N)CCCC3)c(C)c1[N+](=O)[O-] (centres unmarked)	12.1
COc1ccccc1-c1cc(C(=O)NN)[nH]n1	8.53
O=c1c2c3nc4ccccc4nc3n(/N=C/c3ccccn3)c2ncn1-c1ccccc1	19.8
CN=C1SC(C(=O)Nc2ccccc2Cl)CC(=O)N1c1ccc(OC(F)(F)Cl)cc1 (centres unmarked)	20.8
CC(=O)Nc1ccc(S(=O)(=O)NCCC(=O)NCCOc2ccccc2)cc1	-5.6
Cc1ccc(CNC(=O)C(N=C2NS(=O)(=O)c3ccccc32)C(C)C)cc1 (centres unmarked)	5.17
COc1cnc(-c2cccc(C(F)(F)F)c2)[nH]c1=O	9.36
O=C(CNC(=O)c1cccs1)NCC(=O)OCc1ccc(F)cc1	-13.1
O=C(NCCC1=CCCCC1)C1CCN(C(=O)Nc2ccccc2)CC1	7.6
Cc1ccc(/C=C/C(=O)c2c(C)cc(C)[nH]c2=O)cc1	-5.74
Cc1ccc2c(c1)c1ncnc(N3CCOCC3)c1n2C	-18.5
Cc1ccc(CCNC(=O)CCS(=O)(=O)Cc2ccc(C)cc2)cc1	-0.289
COc1cc(C(=S)N2CCOCC2)ccc1OC(=O)c1ccccc1C	5.33
CCc1ccccc1S(=O)(=O)Cc1ccc(C(=O)N2CCN(c3ccccn3)CC2)o1	-45.5

Compound	hERG current change (%, negative = inhibition) at 10uM [%]
COc1cc2c(C(=O)OCCN(C)C)c(CSc3ccccc3)n(C)c2cc1Br	5.67
CC(C)c1nnc(NC(=O)c2cccc(NC(=O)C(F)(F)F)c2)s1	-2.44
Cc1c(OC(C)C(=O)NCCCN2CCOCC2)ccc2c1oc(=O)c1ccccc12 (centres unmarked)	6.19
CCn1ccc(C(=O)Nc2sc3c(c2C(=O)OC)CCC3)n1	16
O=C(Nc1ccccc1N1CCN(C(=O)c2ccccc2)CC1)c1cc(Br)ccc1Cl	-55.6
CCOc1ccc(C(=S)NC2CCCCC2)cc1	-18
COc1cc(-c2noc(-c3cccc(Cl)c3)n2)cc(OC)c1OC	-1.63
C/C(=N\NC(=O)C1(C)CC1(Br)Br)c1ccc([N+](=O)[O-])cc1 (centres unmarked)	11
CC(C)Cc1nc2ccc(N)cc2[nH]1.Cl	-3.89
CC(=O)Nc1ccc(OCC(O)Cn2c(C)nc3ccccc32)cc1 (centres unmarked)	3.96
CCn1c(Cc2ccccc2)nnc1SCc1ccc([N+](=O)[O-])cc1	-57.1
CCOC(=O)c1ccc(NC(=S)N(Cc2cccnc2)Cc2ccco2)cc1	-53.2
CCOc1ccc(NC(=S)NCCN2CCN(Cc3ccccc3)CC2)cc1	-62.3
FC(F)(F)c1ccc(CN2C[C@@H]3C(c4ccc(C(F)(F)F)cc4)C4(c5cccnc5)CC3(C4)[C@H]2c2ccccc2)cc1 (some centres unmarked)	13.6
Cc1ccc(N=Cc2c(O)[nH]c3ccccc23)c([N+](=O)[O-])c1	12
Cc1cc(NC(=O)Cc2ccc(Br)cc2)no1	23.2
O=C(CSc1nnc2ccccn12)Nc1ccccc1C(=O)NC1CC1	7.09
O=C(O)Cc1csc(-c2cccc(Oc3ccccc3)c2)n1	-1.94
